Data published in the supplement of paper PMC12645437, “Orthogonal IMiD-Degron Pairs Induce Selective Protein Degradation in Cells” (ACS Chemical Biology, 2025).
The list shows a part of the results.

biological target: no compound (DMSO); experiment: log2 fold change of degron read counts, EGFP-low vs EGFP+ sorted cells; higher = lower degron-EGFP level without compound (poor expression or instability); conditions: compound: DMSO control; 18 h
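Also: jurkat cells carrying a lentiviral library of mutant zinc finger degrons fused to EGFP plus mCherry, mCherry+ cells FACS sorted, degron abundance counted by next-generation sequencing.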

| Sequence | log2 fold change of degron read counts |
| --- | --- |
| FMCEVCGALFTQKGNLLRHIKL | -0.0498 |
| FQCNVCGAIFTQKGNLLRHIKL | -0.0152 |
| FSCDQCGAQFTQKGNLLRHIKL | -1.42 |
| FGCDICGADFTQKGNLLRHIKL | -1.4 |
| LKCPICGFCCTQKGNLLRHIKL | 0.439 |
| FDCEVCGAQFTQKGNLLRHIKL | -1.95 |
| FQCEQCGAHFTQKGNLLRHIKL | -2.56 |
| FACPVCGAYFTQKGNLLRHIKL | -0.303 |
| FECEQCGAPFTQKGNLLRHIKL | -1.95 |
| LCCEICGFYCTQKGNLLRHIKL | 1.03 |
| FACPICGRTFTQKGNLLRHIKL | -0.362 |
| FKCPQCGAEFTQKGNLLRHIKL | -1.66 |
| FGCEICGAEFTQKGNLLRHIKL | -2.45 |
| FVCDQCGAMFTQKGNLLRHIKL | -1.55 |
| FTCEQCGAWFTQKGNLLRHIKL | -0.82 |
| LSCNQCGFCCTQKGNLLRHIKL | 0.847 |

| Sequence | log2 fold change of degron read counts |
| --- | --- |
| FMCPICGHLFTQKGNLLRHIKL | -0.0434 |
| FMCNQCGRKFTQKGNLLRHIKL | -1.11 |
| LFCEICGFHCTQKGNLLRHIKL | 0.619 |
| FHCNICGAYFTQKGNLLRHIKL | 0.351 |
| FTCDQCGAVFTQKGNLLRHIKL | -1.04 |
| FHCEICGHRFTQKGNLLRHIKL | -0.745 |
| FCCDICGASFTQKGNLLRHIKL | -1.77 |
| FVCPICGAIFTQKGNLLRHIKL | 0.713 |
| FNCNICGAYFTQKGNLLRHIKL | 0.856 |
| FVCEICGANFTQKGNLLRHIKL | -1.92 |
| FCCDVCGAHFTQKGNLLRHIKL | -1.94 |
| FDCPVCGAPFTQKGNLLRHIKL | -0.588 |
| LACPICGFWCTQKGNLLRHIKL | 1.55 |
| FECNQCGHRFTQKGNLLRHIKL | -0.949 |
| FCCNQCGAIFTQKGNLLRHIKL | 0.0266 |
| LCCNQCGFCCTQKGNLLRHIKL | 0.302 |
